# Reference: the supplement of paper PMC8728848
# This is one part of the list.
# B1: Epa7 (Candida glabrata), Q6DTM6_CANGB (protein)
# chain: MGSSHHHHHHSSGLVPRGSHMKDDYSSFLSNNNLGWTDPTEFPLGCSPNVTTPKNGLSMELYSYDLRKNGSYPCWDAAYLDPNYPRTGYKSHRLLAKVDGVTGNINFYYHATKGCTPEIDHLPASYNYPKPLTMTNFTMLLYGYFKPKVTGYHTFTISADDLLFVNFGAGNAFDCCKRESSADDFGNYQAYAVWGSQTAKDDLTVHLDAGLYYPIRIFFNNREYDAELSLTLKTESDSNPVIDFSDYFYSFDDTKDGCPGLVSYDTS
# Tests used:
# Experiment in all cases: glycan array binding signal (z-score within array); higher = stronger binding
# Conditions in all cases: glycan notation: IUPAC condensed, linker removed
# Gal3S(b1-3)GalNAc = molecular target: Gal3S(b1-3)GalNAc
# Summary of the method: (§1)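 From the Consortium for Functional Glycomics database, 3228 arrays were curated, keeping only those whose protein sequence was available. Binding is given as a within-array Z-score averaged across arrays sharing a protein sequence and across linkers. Negative Z-scores can be read as non-binding.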
# Gal3S(b1-3)GlcNAc = molecular target: Gal3S(b1-3)GlcNAc
# Summary of the method: as §1
# [1] = molecular target: Gal3S(b1-3)[Fuc(a1-4)]GlcNAc
# Summary of the method: as §1
# Gal3S(b1-4)Glc = molecular target: Gal3S(b1-4)Glc
# Summary of the method: as §1
# Gal3S(b1-4)Glc6S = molecular target: Gal3S(b1-4)Glc6S
# Summary of the method: as §1
# Gal3S(b1-4)GlcNAc = molecular target: Gal3S(b1-4)GlcNAc
# Summary of the method: as §1
# Gal3S(b1-4)GlcNAc6S = molecular target: Gal3S(b1-4)GlcNAc6S
# Summary of the method: as §1
# [2] = molecular target: Gal3S(b1-4)[Fuc(a1-3)]Glc6S
# Summary of the method: as §1
# [3] = molecular target: Gal3S(b1-4)[Fuc(a1-3)]GlcNAc
# Summary of the method: as §1
# [4] = molecular target: Gal3S(b1-4)[Fuc(a1-3)]GlcNAc6S
# Summary of the method: as §1
# Gal3S4S(b1-4)GlcNAc = molecular target: Gal3S4S(b1-4)GlcNAc
# Summary of the method: as §1
# Gal3S6S(b1-4)GlcNAc = molecular target: Gal3S6S(b1-4)GlcNAc
# Summary of the method: as §1
# Gal3S6S(b1-4)GlcNAc6S = molecular target: Gal3S6S(b1-4)GlcNAc6S
# Summary of the method: as §1
# Gal4S(b1-4)GlcNAc = molecular target: Gal4S(b1-4)GlcNAc
# Summary of the method: as §1
# Gal4S6S(b1-4)GlcNAc = molecular target: Gal4S6S(b1-4)GlcNAc
# Summary of the method: as §1
# Gal6P(b1-4)GlcNAc = molecular target: Gal6P(b1-4)GlcNAc
# Summary of the method: as §1
# Gal6S(b1-3)GlcNAc = molecular target: Gal6S(b1-3)GlcNAc
# Summary of the method: as §1
# Gal6S(b1-3)GlcNAc6S = molecular target: Gal6S(b1-3)GlcNAc6S
# Summary of the method: as §1
# Gal6S(b1-4)Glc = molecular target: Gal6S(b1-4)Glc
# Summary of the method: as §1
# Gal6S(b1-4)Glc6S = molecular target: Gal6S(b1-4)Glc6S
# Summary of the method: as §1
# Gal6S(b1-4)GlcNAc = molecular target: Gal6S(b1-4)GlcNAc
# Summary of the method: as §1
# Gal6S(b1-4)GlcNAc6S = molecular target: Gal6S(b1-4)GlcNAc6S
# Summary of the method: as §1
# GalNAc(a1-3)Gal = molecular target: GalNAc(a1-3)Gal
# Summary of the method: as §1
# GalNAc(a1-3)GalNAc = molecular target: GalNAc(a1-3)GalNAc
# Summary of the method: as §1
# [5] = molecular target: GalNAc(a1-3)GalNAc(b1-3)Gal(a1-4)Gal(b1-4)Glc
# Summary of the method: as §1
# [6] = molecular target: GalNAc(a1-3)GalNAc(b1-3)Gal(a1-4)Gal(b1-4)GlcNAc
# Summary of the method: as §1
# GalNAc(b1-3)Gal = molecular target: GalNAc(b1-3)Gal
# Summary of the method: as §1
# [7] = molecular target: GalNAc(b1-3)Gal(a1-4)Gal(b1-4)GlcNAc
# Summary of the method: as §1
# [8] = molecular target: GalNAc(b1-3)Gal(a1-4)Gal(b1-4)GlcNAc(b1-3)Gal(b1-4)Glc
# Summary of the method: as §1
# [9] = molecular target: GalNAc(b1-3)Gal(a1-6)Gal(b1-4)Glc
# Summary of the method: as §1
# GalNAc(b1-3)GalNAc = molecular target: GalNAc(b1-3)GalNAc
# Summary of the method: as §1
# GalNAc(b1-3)GlcNAc = molecular target: GalNAc(b1-3)GlcNAc
# Summary of the method: as §1
# GalNAc(b1-4)Gal(b1-4)Glc = molecular target: GalNAc(b1-4)Gal(b1-4)Glc
# Summary of the method: as §1
# GalNAc(b1-4)GlcNAc = molecular target: GalNAc(b1-4)GlcNAc
# Summary of the method: as §1
# [10] = molecular target: GalNAc(b1-4)GlcNAc(b1-2)Man
# Summary of the method: as §1
# [11] = molecular target: GalNAc(b1-4)GlcNAc(b1-2)Man(a1-3)[GalNAc(b1-4)GlcNAc(b1-2)Man(a1-6)]Man(b1-4)GlcNAc(b1-4)GlcNAc
# Summary of the method: as §1
# [12] = molecular target: GalNAc(b1-4)GlcNAc(b1-3)GalNAc(b1-4)GlcNAc
# Summary of the method: as §1
# GalNAc(b1-4)GlcNAc6S = molecular target: GalNAc(b1-4)GlcNAc6S
# Summary of the method: as §1
binder,measurement,setting,value
B1,glycan array binding signal (z-score),Gal3S(b1-3)GalNAc,-0.248
same,glycan array binding signal (z-score),Gal3S(b1-3)GlcNAc,-0.245
same,glycan array binding signal (z-score),[1],-0.235
same,glycan array binding signal (z-score),Gal3S(b1-4)Glc,-0.252
same,glycan array binding signal (z-score),Gal3S(b1-4)Glc6S,-0.248
same,glycan array binding signal (z-score),Gal3S(b1-4)GlcNAc,-0.251
same,glycan array binding signal (z-score),Gal3S(b1-4)GlcNAc6S,-0.273
same,glycan array binding signal (z-score),[2],-0.09
same,glycan array binding signal (z-score),[3],-0.23
same,glycan array binding signal (z-score),[4],-0.235
same,glycan array binding signal (z-score),Gal3S4S(b1-4)GlcNAc,-0.237
same,glycan array binding signal (z-score),Gal3S6S(b1-4)GlcNAc,-0.25
same,glycan array binding signal (z-score),Gal3S6S(b1-4)GlcNAc6S,-0.233
same,glycan array binding signal (z-score),Gal4S(b1-4)GlcNAc,-0.253
same,glycan array binding signal (z-score),Gal4S6S(b1-4)GlcNAc,-0.247
same,glycan array binding signal (z-score),Gal6P(b1-4)GlcNAc,-0.241
same,glycan array binding signal (z-score),Gal6S(b1-3)GlcNAc,-0.215
same,glycan array binding signal (z-score),Gal6S(b1-3)GlcNAc6S,-0.215
same,glycan array binding signal (z-score),Gal6S(b1-4)Glc,-0.227
same,glycan array binding signal (z-score),Gal6S(b1-4)Glc6S,0.137
same,glycan array binding signal (z-score),Gal6S(b1-4)GlcNAc,-0.237
same,glycan array binding signal (z-score),Gal6S(b1-4)GlcNAc6S,-0.189
same,glycan array binding signal (z-score),GalNAc(a1-3)Gal,-0.252
same,glycan array binding signal (z-score),GalNAc(a1-3)GalNAc,-0.255
same,glycan array binding signal (z-score),[5],-0.231
same,glycan array binding signal (z-score),[6],-0.208
same,glycan array binding signal (z-score),GalNAc(b1-3)Gal,-0.245
same,glycan array binding signal (z-score),[7],-0.251
same,glycan array binding signal (z-score),[8],-0.209
same,glycan array binding signal (z-score),[9],-0.238
same,glycan array binding signal (z-score),GalNAc(b1-3)GalNAc,-0.236
same,glycan array binding signal (z-score),GalNAc(b1-3)GlcNAc,-0.243
same,glycan array binding signal (z-score),GalNAc(b1-4)Gal(b1-4)Glc,-0.213
same,glycan array binding signal (z-score),GalNAc(b1-4)GlcNAc,-0.252
same,glycan array binding signal (z-score),[10],-0.243
same,glycan array binding signal (z-score),[11],-0.231
same,glycan array binding signal (z-score),[12],-0.241
same,glycan array binding signal (z-score),GalNAc(b1-4)GlcNAc6S,-0.241
